Results published in PubChem BioAssay AID463173 (ICCB-Longwood Screening Facility, Harvard Medical School, 2010).
In all, about 52,000 compounds went through this assay and about 1,700 (3.3%) were called active. Rule as the data show it: active = survival mostly below about 52% (no sharp cut-off); inactive = mostly above about 56%. The list shows a part of the results.

system: Wild type; assay: S. aureus survival, RN4220 and DeltatarO strains – OD600, teichoic acid synthesis inhibitors, primary screen (AID 463173); conditions: S. aureus RN4220 wild type/DeltatarO growth, OD600, 18 h, active compounds read low, screened at 18.75 µg/mL (by protocol)

Row | SMILES | survival
1 | CCCOc1ccccc1C(=O)Nc1ccc(-c2nc3ccc(C)cc3s2)cc1 | inactive: 43%
2 | Cc1ccc(Cn2cc3c(n2)-c2c(oc(C(=O)Nc4ccc(F)cc4F)c2C)CC3)cc1 | inactive: 85%
3 | Cc1nc(SCC(=O)Nc2ccc(Cl)cc2C(F)(F)F)[nH]c(=O)c1Cc1ccccc1 | inactive: 60%
4 | CCn1cc(C(=O)NCCCOC(C)C)c(=O)c2cc(S(=O)(=O)N(C)C3CCCCC3)ccc21 | inactive: 140%
5 | CCN(Cc1ccccc1)Cc1c(O)ccc2c(=O)c(-c3ccccc3Cl)coc12 | inactive: 73%
6 | O=C(O)CN1Cc2ccccc2C1 | inactive: 110%
7 | COc1cc(OC)c(NC(=O)CSCc2nc(-c3ccc(OC)c(OC)c3)no2)cc1Cl | inactive: 80%
8 | CC(=O)c1cccc(NC(=O)c2ccc3c(c2)c(C)c(C)n3Cc2ccc(Cl)cc2)c1 | inactive: 105%
9 | CCOC(=O)c1c(-c2ccccc2)csc1NC(=O)c1cc(-c2cccc(Cl)c2)on1 | inactive: 90%
10 | Cc1ccc(C)c(N2CCN(S(=O)(=O)c3ccc4c(c3)n(C)c(=O)c(=O)n4C)CC2)c1 | inactive: 80%
11 | O=C(NCc1ccccc1)c1ccc(Cn2c(=O)c3cccn3c3cccnc32)cc1 | inactive: 112%
12 | O=C(Nc1cc(-c2nc3cc(Cl)ccc3o2)ccc1Cl)c1cc2ccccc2o1 | inactive: 96%
13 | CN(Cc1ccccc1)S(=O)(=O)c1ccc(F)c(C(=O)Nc2cc(Cl)cc(Cl)c2)c1 | inactive: 76%
14 | CC1(C)CC(=O)c2cc(-c3nc(-c4ccc(Cl)cc4)cs3)c(=O)n(-c3cccc(F)c3)c2C1 | inactive: 93%
15 | COc1cc(C)ccc1OCCSc1nc2ccc(NC(=O)c3ccc(C)cc3)cc2s1 | inactive: 90%
16 | CCCNC(=O)C1CCN(Cc2cc3ccccc3n2Cc2ccccc2)CC1 | inactive: 68%
17 | CC(=O)c1cccc(Nc2nn(-c3ccc(OC(F)(F)F)cc3)nc2C(C)=O)c1 | inactive: 89%
18 | COc1ccc(CNC(=O)CCc2c(C)nc3nc(CNC(=O)OC(C)(C)C)nn3c2C)cc1 | inactive: 77%
19 | Cn1cc(C(=O)NCCc2ccccc2)c(=O)c2cc(S(=O)(=O)N3CCCCCC3)ccc21 | inactive: 87%
20 | Cc1c(C(=O)N(Cc2ccc(N(C)C)cc2)Cc2ccco2)oc2cc(Br)ccc12 | inactive: 87%
21 | COc1ccc(-c2ccc(CCC(=O)O)n2CC(=O)Nc2cccc(Cl)c2C)cc1 | inactive: 81%
22 | O=C(CN1C(=O)CC(c2ccco2)Sc2ccccc21)Nc1ccc(Br)cc1 (stereo unspecified) | inactive: 91%
23 | COc1ccccc1-c1noc(-c2ccc(NCc3cccnc3)c([N+](=O)[O-])c2)n1 | inactive: 92%

Row | SMILES | survival
24 | CCc1cc2c(cc3c(=O)n(CC(=O)NC4CCCCC4)ncn32)s1 | inactive: 79%
25 | Cc1ccc(OCC(=O)Nc2ccc3[nH]c(=O)sc3c2)cc1 | inactive: 93%
26 | COc1ccc(-n2ccn(Cc3ccccc3C)c(=O)c2=O)cc1 | inactive: 115%
27 | Cc1cc(C)cc(NC(=O)C(=O)NCC(c2cccnc2)N2CCN(c3ccccc3)CC2)c1 (stereo unspecified) | inactive: 49%
28 | CCCCn1cc(S(=O)(=O)c2ccc(CC)cc2)c(=O)c2cc(F)c(N3CCOCC3)cc21 | inactive: 73%
29 | CCOc1ccc(N(C(C)C(=O)NCCSc2ccc(C)cc2)S(C)(=O)=O)cc1 (stereo unspecified) | inactive: 65%
30 | COc1cccc(C(c2sc3nc(-c4ccco4)nn3c2O)N2CCN(c3ccccc3F)CC2)c1 (stereo unspecified) | inactive: 81%
31 | COc1ccc(S(=O)(=O)N(C)C2CCCCC2)cc1 | inactive: 110%
32 | CC[n+]1c(C)sc2sc3ccccc3c21 | inactive: 98%
33 | COc1ccc(-c2cc(C(=O)NCCc3ccc(OC)c(OC)c3)c3ccccc3n2)cc1 | inactive: 68%
34 | COc1ccc(NC(=O)C(C)Sc2cc(-c3ccccc3)nc(C)n2)cc1Cl (stereo unspecified) | inactive: 81%
35 | CCNC(=S)N1CCC(C(N)=O)CC1 | inactive: 100%
36 | O=C1CN(C(=O)Nc2ccccc2Cl)C(c2ccccc2)c2c(sc3c2CCCC3)N1 (stereo unspecified) | inactive: 78%
37 | Cc1nn(-c2ccccc2)c2c1N(CCCC(=O)NCc1ccccc1)C(=O)CS2 | inactive: 78%
38 | COc1ccc(-c2noc(-c3ccc(NC4CCCCC4)c([N+](=O)[O-])c3)n2)cc1 | inactive: 82%
39 | CCc1nn2c(=O)cc(COC(=O)c3ccc(NC(=O)C4CCCCC4)cc3)nc2s1 | inactive: 68%
40 | CCC1CCc2nc3sc(C(=O)Nc4cccc(C(F)(F)F)c4)c(N)c3cc2C1 (stereo unspecified) | inactive: 141%
41 | O=C(COc1ccc(F)cc1)Nc1ccccc1OCc1cc(=O)n2ccccc2n1 | inactive: 71%
42 | COc1ccc(S(=O)(=O)Nc2cc3c(cc2N2CCOCC2)n(C)c(=O)n3C)cc1 | inactive: 122%
43 | COc1cccc(NC(=O)c2ccc3[nH]c(C)cc(=O)c3c2)c1 | inactive: 116%
44 | O=C(CCn1c(=O)c2cccn2c2cccnc21)NCc1ccccc1F | inactive: 111%
45 | CCCc1cc(=O)oc2cc(C)c3c(C(C)(C)C)coc3c12 | inactive: 86%
46 | Oc1ccc(-c2cccc(-c3ccc(O)cc3)c2)cc1 | inactive: 101%

Row | SMILES | survival
47 | COC(=O)c1ccc(Cn2nc(-c3ccc(C)cc3)ccc2=O)cc1 | inactive: 145%
48 | Nc1ccccc1N1CCN(C(=O)c2ccccc2)CC1 | inactive: 98%
49 | Cn1c(SCc2ccccc2Cl)nc2c([nH]c3ccccc32)c1=O | inactive: 65%
50 | CCc1cccc(NC(=O)c2oc3ccc4c(c3c2C)C(=O)CC(C)(C)O4)c1 | inactive: 91%
51 | COc1cccc(CN2C(=O)C3(SCC(=O)N3c3ccc(C(C)C)cc3)c3ccccc32)c1 (stereo unspecified) | inactive: 66%
52 | CCOc1ccc(C(=O)Nc2ccc3oc(-c4ccc(Br)cc4)nc3c2)cc1 | inactive: 75%
53 | COc1cccc(CNS(=O)(=O)c2ccc(-c3cc(C(F)(F)F)on3)s2)c1 | inactive: 87%
54 | O=C(c1ccc2c(c1)OCCO2)N(Cc1cccnc1)c1nc2c(F)cc(F)cc2s1 | inactive: 75%
55 | CCOC(=O)c1ccc(N2C(=O)Cc3cc(OCC)c(OCC)cc3C2c2ccccc2)cc1 (stereo unspecified) | inactive: 90%
56 | COc1ccc(N(CC(=O)Nc2cc(Cl)ccc2C)S(=O)(=O)c2c(C)noc2C)cc1 | inactive: 82%
57 | CCOc1ccc(NS(=O)(=O)c2ccc3[nH]cc(C(=O)N4CCCCCC4)c(=O)c3c2)cc1 | inactive: 122%
58 | COc1ccc(Cc2nc3ccc(C(=O)NCCCN4CCN(C)CC4)cc3o2)cc1 | inactive: 135%
59 | Cc1ccccc1-c1nc(SCC(=O)NCC2CCCO2)c2c(=O)n(C)c(=O)n(C)c2n1 (stereo unspecified) | inactive: 77%
60 | Cc1cccc(CCNC(=O)CCc2c(C)nc3ncnn3c2C)c1 | inactive: 71%
61 | COc1ccc(N2CCN(C(=O)c3sc4nc5n(c(=O)c4c3C)CCC5)CC2)cc1 | inactive: 120%
62 | COCCNC(=O)c1ccc2c(=O)n(CCOC)c(SCC(=O)c3c[nH]c4ccccc34)nc2c1 | active: -1%
63 | CCOC(=O)c1c(NC(=O)c2cc3nc(-c4ccccc4)cc(C(F)(F)F)n3n2)sc2c1CCC(C)C2 (stereo unspecified) | inactive: 65%
64 | O=C1CSC(=O)N1Cc1cc2c(cc1Cl)OCO2 | inactive: 100%
65 | CCCNC(=O)c1cnc2sc(N3CCCCCC3)nn2c1=O | inactive: 83%
66 | Cc1ccccc1C(=O)OCc1cc(=O)n2c(C)csc2n1 | inactive: 129%
67 | CCc1nn(CC(=O)NCc2ccc(OC)c(OC)c2)c(=O)c2cc3sc(C)cc3n12 | inactive: 72%
68 | Cn1c(CN2CCOCC2)nnc1SCC(N)=O | inactive: 114%
69 | CCOc1ccc(C(=O)Nc2ccccc2OCc2cc(=O)n3ccccc3n2)cc1 | inactive: 131%

Row | SMILES | survival
70 | Cc1cc(C(=O)Nc2cccc(F)c2)c2c(C)nn(-c3cccc(Cl)c3C)c2n1 | inactive: 76%
71 | COc1ccccc1OCCCCn1c(-c2ccc(Cl)cc2)nc2ccccc2c1=O | inactive: 52%
72 | Brc1ccc(NCc2ccco2)cc1 | inactive: 124%
73 | CN(C)c1ccc(C(=O)Nc2cccc(-c3nc4cccnc4s3)c2)cc1 | inactive: 68%
74 | CCc1ccc(-c2cn3c(n2)SCC3)cc1 | inactive: 111%
75 | COc1ccc(CCNC(=O)c2nc(SCc3ccc(C)cc3)ncc2Cl)cc1OC | inactive: 97%
76 | CCOC(=O)Cn1c(=O)n(-c2ccccc2OC)c2nc(-c3ccccc3F)nc(C(N)=O)c21 | inactive: 71%
77 | Cc1ccc(CCNC(=O)c2cc(C)nc3c2c(C)nn3-c2ccc(C)cc2)cc1 | inactive: 19%
78 | O=C(Nc1ccc(C(F)(F)F)cc1)C1CCN(c2cnccn2)CC1 | inactive: 89%
79 | Cc1ccc2cc3c(N)c(-c4nnc(-c5ccccc5)o4)sc3nc2c1 | inactive: 110%
80 | COc1cccc2cc(-c3csc(-c4ccc(Cl)cc4)n3)c(=O)oc12 | inactive: 125%
81 | Cc1cc(C)c(C#N)c(S(C)(=O)=O)n1 | inactive: 116%
82 | COc1cccc(Cn2c(SCC(=O)N(C)c3ccccc3)nc3ccccc32)c1 | active: -6%
83 | CCc1ccc(-n2c(SCc3ccccc3C)nc3[nH]ncc3c2=O)cc1 | inactive: 83%
84 | COC(=O)c1ccc(Cn2c(SCc3ccccc3)nc3ccncc32)cc1 | inactive: 66%
85 | Cc1ccc(-c2nc(CS(=O)(=O)CC(=O)NCc3ccc(Cl)cc3)c(C)o2)cc1 | inactive: 92%
86 | Cc1ccccc1CNC(=O)c1ccc(CSc2nc3cccnc3n2Cc2ccccc2)cc1 | inactive: 47%
87 | O=C(CN1CCC(C(=O)c2ccc(F)cc2)CC1)Nc1ccccc1 | inactive: 100%
88 | CCc1c(C)c2ccc(O)c(CN3CCN(c4ccc(OC)cc4)CC3)c2oc1=O | inactive: 79%
89 | CC1CCC(Nc2nnnn2-c2ccccc2)CC1 (stereo unspecified) | inactive: 109%
90 | O=C(CN1CCSc2ccccc21)N1CCCCC1 | inactive: 77%
91 | Cc1ccc(CCNC(=O)c2ccc(CNS(=O)(=O)c3ccccc3)cc2)cc1 | inactive: 92%
